According to patent US20070037883A1, “Therapeutic compositions” (priority 2003, published 2007):

Target: T1, Nox4-containing NADPH oxidase in cultured mouse VSMCs (Mus musculus, UniProt Q9JHI8)
T1 sequence (Q9JHI8 1-578): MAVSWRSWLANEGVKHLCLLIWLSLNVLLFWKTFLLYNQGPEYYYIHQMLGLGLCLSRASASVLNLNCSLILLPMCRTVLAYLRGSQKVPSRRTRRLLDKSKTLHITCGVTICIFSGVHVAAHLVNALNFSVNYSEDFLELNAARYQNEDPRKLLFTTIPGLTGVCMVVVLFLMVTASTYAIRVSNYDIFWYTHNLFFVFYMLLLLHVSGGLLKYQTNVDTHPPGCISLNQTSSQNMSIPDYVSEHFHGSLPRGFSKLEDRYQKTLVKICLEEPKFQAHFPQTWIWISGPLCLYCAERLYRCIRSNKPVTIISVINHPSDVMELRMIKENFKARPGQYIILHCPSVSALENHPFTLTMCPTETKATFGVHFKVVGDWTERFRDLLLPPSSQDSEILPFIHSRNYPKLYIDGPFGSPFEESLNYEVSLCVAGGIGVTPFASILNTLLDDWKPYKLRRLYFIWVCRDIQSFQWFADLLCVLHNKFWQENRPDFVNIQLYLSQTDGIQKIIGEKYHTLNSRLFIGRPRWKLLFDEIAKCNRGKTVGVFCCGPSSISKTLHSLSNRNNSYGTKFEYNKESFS
T1 sequence (Q61462 1-192 partner): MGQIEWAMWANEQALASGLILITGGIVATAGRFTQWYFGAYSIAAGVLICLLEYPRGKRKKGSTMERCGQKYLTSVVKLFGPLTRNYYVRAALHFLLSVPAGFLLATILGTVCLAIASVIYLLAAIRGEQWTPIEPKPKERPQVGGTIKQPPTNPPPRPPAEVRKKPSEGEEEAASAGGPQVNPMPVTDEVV
Assay: NADPH-driven superoxide production in cultured mouse VSMCs, lucigenin-enhanced chemiluminescence
Assay type: cell-based
Conditions: for reduction in NADPH-driven superoxide production, second series vs mismatch and scrambled: 500 nmol/L oligonucleotide, 24 h, 100 μmol/L NADPH 45 mins, FIG. 8

c1ccc2c(c1)[I+]c1ccccc1-2 [DPI, diphenyleneiodonium]
inhibition of the Nox4-containing NADPH oxidase in cultured mouse VSMCs (in words) (FIG. 2A, FIG. 5): powerful inhibitor | IC50 (mouse VSMCs, FIG. 5, read-out: IC50, concentrations at which DPI inhibits NADPH oxidase): 1 nM

+13/+33 scrambled: scrambled control oligonucleotide CGTCACGCTCAGCTCACCGT [SEQ ID NO:19], same base composition in random order (chemistry not given here)
reduction in NADPH-driven superoxide production, second series vs mismatch and scrambled: neither the mismatch nor the scrambled sequence had any effect

1-amino-4[[4[[4-chloro-6-[[n-sulfophenyl]amino]-1,3,5-triazin-2-yl]amino]-3-sulfophenyl]amino]-9,10-dihydro-9,10-dioxo-2-anthracene-sulfonic acid wherein n is 3 or 4 [Reactive blue-2]
inhibition of the Nox4-containing NADPH oxidase in cultured mouse VSMCs (in words) (FIG. 2A, FIG. 5): powerful inhibitors

Cc1ccc(C(=O)Nc2ccc(S(=O)(=O)O)c3cc(S(=O)(=O)O)cc(S(=O)(=O)O)c23)cc1NC(=O)c1cccc(NC(=O)Nc2cccc(C(=O)Nc3cc(C(=O)Nc4ccc(S(=O)(=O)O)c5cc(S(=O)(=O)O)cc(S(=O)(=O)O)c45)ccc3C)c2)c1 [suramin]
inhibition of the Nox4-containing NADPH oxidase in cultured mouse VSMCs (in words) (FIG. 2A, FIG. 5): powerful inhibitors | NADPH-driven superoxide production in VSMCs (suramin 100 μM for 45 minutes, FIG. 2A): abolish | inhibition of 100 μM NADPH-driven activity of Nox4-containing NADPH-oxidase in VSMC (suramin ≦100 μM, 100 μM NADPH, FIG. 2a): fully inhibits

NADPH
EC50 (45 mins incubation with NADPH, FIG. 5A, read-out: EC50, concentration-dependent increase in superoxide production): 5000 ± 600 nM

Cc1nc(N=Nc2ccc(S(=O)(=O)O)cc2S(=O)(=O)O)c(COP(=O)(O)O)c(C=O)c1O [PPADS, 4-[[-formyl-5-hydroxy-6-methyl-3-[(phos-phonooxy)methyl]-2-pyridinyl]azo]-1,3-benzenedisulfonic acid]
inhibition of the Nox4-containing NADPH oxidase in cultured mouse VSMCs (in words) (FIG. 2A, FIG. 5): powerful inhibitors

COc1cc(C(C)=O)ccc1O [apocynin]
effect on NADPH-driven superoxide production after 45 mins (45 mins, 100 μM NADPH, FIG. 5C): no effect | inhibition of NADPH-driven superoxide production after 24 h (24 h incubation, 100 μM NADPH, FIG. 5C): ~50% | inhibition of the Nox4-containing NADPH oxidase in cultured mouse VSMCs (in words) (FIG. 2A, FIG. 5): inhibits

+13/+33 mismatch: mismatch control oligonucleotide TAGGCCAGCAAGCTCCTACA [SEQ ID NO:18], differs in three base positions (chemistry not given here)
reduction in NADPH-driven superoxide production, second series vs mismatch and scrambled: neither the mismatch nor the scrambled sequence had any effect
